# Laboratory results as given in PubChem BioAssay AID463173 (ICCB-Longwood Screening Facility, Harvard Medical School, 2010).
# Out of some 52,000 compounds screened, about 1,700 (3.3%) were called active. Rule as the data show it: active = survival mostly below about 52% (no sharp cut-off); inactive = mostly above about 56%. The list shows a part of the results.
# Test system: Wild type
# Test: S. aureus survival, RN4220 and DeltatarO strains – OD600, teichoic acid synthesis inhibitors, primary screen (AID 463173)
# Conditions: S. aureus RN4220 wild type/DeltatarO growth, OD600, 18 h, hits give low values, screened at 18.75 µg/mL (by protocol)
row,SMILES,survival
1,COc1ccc2[nH]c(=O)c(C(c3nnnn3Cc3ccccc3)N3CCc4ccccc43)cc2c1 (stereo not drawn),inactive: 109%
2,N#Cc1ccc(-c2cccnc2)n(CC(=O)N2CCOCC2)c1=O,inactive: 113%
3,O=C(Nc1ccc(F)cc1F)c1cc2c(=O)n3ccccc3nc2s1,inactive: 79%
4,CCc1cccc(NC(=O)CCc2nc3cccnc3n2-c2ccccc2)c1,inactive: 86%
5,CSc1ccc(CCNC(=O)c2ccc(CS(=O)(=O)c3ccc(Br)cc3)o2)cc1,inactive: 79%
6,CC1CCc2c(sc(NC(=O)c3ccc(Cl)cc3Cl)c2C#N)C1 (stereo not drawn),inactive: 80%
7,CCOC(=O)N1CCc2c(sc(NCc3ccc(N(C)C)cc3)c2C(=O)Nc2ccc(OC)cc2)C1,inactive: 73%
8,Nc1nc(N)c2nccnc2n1,inactive: 105%
9,O=c1c2sc3ccccc3c2n(Cc2cccc(C(F)(F)F)c2)c(=O)n1Cc1ccccc1,inactive: 92%
10,COc1ccc(C(c2nnnn2C2CCCC2)N2CCN(C(=O)c3ccco3)CC2)cc1OC (stereo not drawn),inactive: 109%
11,COc1ccc(NC(=O)CSc2nc(-c3cccs3)cc(C(F)(F)F)c2C#N)cc1,inactive: 113%
12,Cc1c(Cl)cccc1N1C(N)=C(C#N)C(c2cc(CN3CCOCC3)cs2)C2=C1CCCC2=O (stereo not drawn),inactive: 160%
13,O=C1N(Cc2cccc(C(F)(F)F)c2)c2ccccc2S(=O)(=O)N1c1cccc(Cl)c1,inactive: 59%
14,COc1ccc(CNC(=O)c2cc3cc(S(=O)(=O)N4CCCCC4)ccc3n2C)c(OC)c1,inactive: 63%
15,O=c1[nH]c(O)c(C=NCc2ccc3c(c2)OCO3)c(=O)[nH]1,inactive: 111%
16,COc1ccc(NC(=O)CCc2c(C)nc3c(c2C)c(=O)n(C)c(=O)n3C)cc1OC,inactive: 70%
17,CCN(CC)C(=O)CSc1nc2cc3c(cc2c(=O)n1CCCCCC(=O)NCCc1ccc(OC)c(OC)c1)OCO3,inactive: 111%
18,Cc1cc(F)ccc1NC(=O)CN(C)S(=O)(=O)c1ccc(C(=O)N2CCOCC2)s1,inactive: 80%
19,CCc1ccc2[nH]c(=O)c(C(c3nnnn3C3CCCC3)N(Cc3ccccc3)Cc3ccco3)cc2c1 (stereo not drawn),inactive: 113%
20,N#Cc1c(C(F)(F)F)cc(-c2cccs2)nc1SCC(=O)Nc1ccc(F)cc1,inactive: 94%
21,COc1ccc(CNC(=O)c2ccc3c(c2)N(Cc2ccccc2F)C(=O)c2ccccc2S3(=O)=O)cc1,inactive: 84%
22,CCOc1ccc(NC(=O)c2c(NCc3sccc3C)sc3c2CCCCC3)cc1,inactive: 102%

row,SMILES,survival
1,Cc1ccc(C(=O)N2CC3(C)CC2CC(C)(C)C3)cc1 (stereo not drawn),inactive: 110%
2,COCCNC(=O)CCc1c(C)nc2c(c(C)nn2-c2ccc(C)cc2)c1C,inactive: 90%
3,CCCN(CCC)c1nc(-c2ccccc2F)nc2ccccc12,active: 1%
4,O=C(COc1ccc([N+](=O)[O-])cc1)Nc1cccc2cccnc12,inactive: 89%
5,COc1ccc(OCc2ccc(-c3nc(C#N)c(N4CCN(c5cccc(Cl)c5)CC4)o3)o2)cc1,inactive: 93%
6,O=C(CSc1nc2c([nH]c3ccccc32)c(=O)n1-c1ccc(F)cc1)NC1CCCCC1,inactive: 77%
7,CCc1ccccc1NC(=O)CSC1=Nc2ccccc2C2=NC(Cc3ccccc3)C(=O)N12 (stereo not drawn),inactive: 71%
8,COc1cc(Cl)c(C)cc1NC(=O)Cn1ncc2c(=O)oc3ccccc3c21,inactive: 92%
9,COc1cc(NC(=O)C2CCCN(S(=O)(=O)c3ccc4c(c3)CCCC(=O)N4)C2)cc(OC)c1 (stereo not drawn),inactive: 71%
10,CCC(C(=O)OC)n1cnc2c(cnn2-c2ccc(F)cc2)c1=O (stereo not drawn),inactive: 84%
11,COc1ccc(-c2nc(SCC(=O)c3ccc(OC)c(Br)c3)n[nH]2)cc1,inactive: 116%
12,CCC(Sc1nc2nccnc2c(=O)n1Cc1ccc(F)cc1)C(=O)NC1CCCCC1 (stereo not drawn),inactive: 68%
13,CC1(C)CCCC2=C1CC1C(=O)N(O)C(=O)C1C2 (stereo not drawn),inactive: 108%
14,CSc1ncc(Cl)c(C(=O)Nc2ccc(S(=O)(=O)N3CCCC(C)C3)cc2)n1 (stereo not drawn),inactive: 90%
15,CCc1cccc(NC(=O)C2CCC(CNS(=O)(=O)c3csc(C(N)=O)c3)CC2)c1 (stereo not drawn),inactive: 69%
16,CCOc1cccc(C2c3[nH]c4ccccc4c3CCN2C(=O)CCC2CCCC2)c1 (stereo not drawn),inactive: 68%
17,O=C(CSc1ccccn1)c1ccc(Cl)cc1,inactive: 107%
18,CCc1ccc(CNC(=O)c2cnc3sc(N4CCCCC4)nn3c2=O)cc1,inactive: 95%
19,CCOc1ccc(S(=O)(=O)c2cn(Cc3ccccc3)c3ccc(OCC)cc3c2=O)cc1,inactive: 78%
20,Cc1cc(NC(=O)NCc2ccc3c(c2)CCN3C(=O)c2ccccc2)ccc1Br,inactive: 135%
21,CCc1ccc(S(=O)(=O)Nc2cccc(-c3ccc(N4CCC(C)CC4)nn3)c2)s1,inactive: 57%
22,CC(C)(C)OC(=O)N1CCC(c2c(C(=O)NCc3ccco3)cnn2-c2ccccc2)CC1,inactive: 75%

row,SMILES,survival
1,Cc1cc(=O)n2nc(N3CCC(C(=O)NCc4ccccc4)CC3)sc2n1,inactive: 102%
2,Cc1ccc(NC(=O)Cn2cnc3nc4c(cc3c2=O)CCCC4)cc1Cl,inactive: 83%
3,COc1ccc(C(=O)Nc2ccc(OCc3cc(=O)n4ccsc4n3)cc2)cc1OC,inactive: 92%
4,O=C(NCCn1cnc2cccnc21)Nc1ccccc1-c1ccccc1,inactive: 107%
5,CCn1c(=O)cc(SCC(=O)NCc2ccccc2OC)c2ccccc21,inactive: 76%
6,COc1ccc2cc(C(=O)NCc3ccc4c(c3)CCN4C(=O)c3ccccc3)[nH]c2c1,active: -3%
7,O=C(Cn1cc(C(=O)c2ccco2)c2ccccc21)Nc1ccccc1Cl,inactive: 69%
8,O=C(NCc1cccnc1)C(=O)NCC(c1cccnc1)N1CCN(c2ccccc2F)CC1 (stereo not drawn),inactive: 108%
9,Cc1nn(-c2ccc(F)cc2)c(-n2cccc2)c1C(=O)NCCCN1CCN(c2cccc(Cl)c2)CC1,inactive: 110%
10,CCOC(=O)c1sc2ccccc2c1S(=O)(=O)N1CCN(c2cccc(C)c2C)CC1,inactive: 75%
11,CCOC(=O)c1sc2ccccc2c1S(=O)(=O)N1CCN(c2cccc(OC)c2)CC1,inactive: 55%
12,Cc1cc(C)c2c(=O)cc(C(=O)Nc3ccc(S(=O)(=O)N(C)Cc4ccccc4)cc3)oc2c1,inactive: 82%
13,O=C(C1CCN(S(=O)(=O)c2cccc3nonc23)CC1)N1CCN(c2ccccc2F)CC1,inactive: 67%
14,Cc1ccc(C(c2ccccc2)c2c(C)[nH]c3ccccc23)s1 (stereo not drawn),inactive: 86%
15,Cc1ccc2nc(-c3c[nH]c4ccccc34)c(Nc3ccccc3C)n2c1,inactive: 98%
16,Nc1nnc(SCC(=O)Nc2ccccc2)s1,inactive: 65%
17,COc1cccc(NC(=O)Cn2c(=O)n(CC(=O)NCc3ccc(C)cc3)c(=O)c3sccc32)c1,inactive: 88%
18,Cc1ccc(/C=C/C(=O)Nc2ccc(S(N)(=O)=O)cc2)o1,inactive: 72%
19,Cc1ccc(-c2cc(NC(=O)COc3ccc(Cl)c(C)c3)on2)cc1,inactive: 98%
20,CCN1CCN(C(=O)Cn2ncc3c4ccccc4n(Cc4ccccc4)c3c2=O)CC1,inactive: 86%
21,COCCNC(=O)c1nc2c(nnn2Cc2cc(C)ccc2C)c(=O)[nH]1,inactive: 113%
22,O=C(COc1ccc(Br)cc1)N/N=C1\SCC(=O)N1c1ccc(F)cc1,inactive: 116%

row,SMILES,survival
1,Cc1cc(C)c(Cn2c3ccccc3c3cnn(CC(=O)NCc4ccccn4)c(=O)c32)c(C)c1,inactive: 137%
2,COc1ccccc1CCNC(=O)C(=O)NCC(c1cccs1)S(=O)(=O)c1ccccc1 (stereo not drawn),inactive: 84%
3,CC(=NC1CC1)C1=C(O)c2ccccc2C1=O,inactive: 107%
4,CCOC(=O)c1cccc(NC(=O)c2cn(-c3cccc(OC)c3)c(=O)c3ccccc23)c1,inactive: 86%
5,CCc1nc(SCC(=O)O)c(C#N)cc1C,inactive: 96%
6,O=C(CCS(=O)(=O)c1ccc(Br)cc1)Nc1ccc(Cl)c(C(F)(F)F)c1,inactive: 138%
7,Cc1cccc(Cn2c(=O)n(Cc3ccccc3)c(=O)c3oc4ccccc4c32)c1,inactive: 84%
8,Cc1ccccc1NC(=O)C1CCN(C(=O)c2cnn(-c3ccccc3)c2-n2cccc2)CC1,inactive: 73%
9,Cc1ccc(Sc2ccc(N3CCC(C(=O)Nc4ccc(C)c(F)c4)CC3)nn2)cc1,inactive: 62%
10,Fc1cc(F)c2ncc3c(-c4ccccc4)nn(-c4cccc(Cl)c4)c3c2c1,inactive: 111%
11,CC(C)OCCCNC(=O)C(=O)Nc1ccc2nc3n(c(=O)c2c1)CCCCC3,inactive: 99%
12,COc1ccc(-c2cc(C(F)(F)F)nc(-n3nc(C(F)(F)F)cc3C)n2)cc1,inactive: 50%
13,COc1cc(NC(=O)N(Cc2ccco2)C2CCN(C(C)=O)CC2)cc(OC)c1OC,inactive: 159%
14,Cc1cccc(-c2nc3nc(C)cc(NCc4ccccc4Cl)n3n2)c1,inactive: 83%
15,CCc1ccc(-n2c(N3CCN(c4cccc(Cl)c4)CC3)nc3ccccc3c2=O)cc1,inactive: 86%
16,Cc1ccc(NC(=O)N(Cc2cc3cc(C)cc(C)c3[nH]c2=O)CC2COCCO2)cc1 (stereo not drawn),inactive: 104%
17,CC1CCN(c2oc(-c3ccc(COc4ccccc4)o3)nc2C#N)CC1,inactive: 75%
18,O=C(NCC(c1cccs1)S(=O)(=O)c1cccs1)c1ccc(Cl)cc1 (stereo not drawn),inactive: 70%
19,c1ccc(CN2CCCN(c3nc4c(c(NCCN5CCOCC5)n3)CCCC4)CC2)cc1,inactive: 104%
20,Cc1ccc(-n2c(SCC(=O)NCc3ccccc3)nc3n[nH]c(C)c3c2=N)cc1Cl,active: -6%
21,Cc1ccc(-c2nc3nc(C)cc(C)n3c2Nc2ccc3c(c2)OCCO3)cc1,inactive: 129%
22,CC(=O)N1CCc2cc(Br)cc(S(=O)(=O)N3CCC(C)CC3)c21,inactive: 124%
